According to the supplement of paper PMC9446081:
In all, about 39,000 compounds went through this assay and about 220 (0.56%) showed activity. The list shows a part of the results.

What follows are molecules tested on Escherichia coli K-12 BW25113 (assay: relative growth (OD600 normalised to plate interquartile mean) (fraction); higher = less growth inhibition, active = 0.2 or less). Details: 50 µM; LB; incubation time: overnight (16-24 h).
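Further: static incubation at 37 °C against the wild-type strain, values averaged over two biological replicates.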

Structure (SMILES) | relative growth
O=C(C[C@H]1C=C[C@@H](NC(=O)c2ccc3c(c2)OCO3)[C@@H](CO)O1)NCc1ccc(Oc2ccccc2)cc1 | inactive: 1.01
Cc1noc(C)c1NC(=O)N(C)C[C@@H]1OCCCC[C@H](C)Oc2ccc(NS(=O)(=O)c3ccc(Cl)cc3)cc2C(=O)N([C@H](C)CO)C[C@@H]1C | inactive: 1
O=C(C[C@H]1CC[C@H]2[C@@H](COC[C@@H](O)CN2S(=O)(=O)c2ccc(Cl)cc2)O1)N1CCc2ccccc2C1 | inactive: 1.03
OCCN1CNC(=S)NC1 | inactive: 0.983
COc1ccc(NC(=O)Nc2ccc3c(c2)C(=O)N([C@H](C)CO)C[C@@H](C)[C@H](CN(C)CC2CCCCC2)O3)cc1 | inactive: 1.01
C[C@H]1CN([C@@H](C)CO)S(=O)(=O)c2ccc(C3=CCCC3)cc2O[C@@H]1CN(C)S(=O)(=O)c1ccc(F)cc1 | inactive: 1.02
O=C(N[C@H]1CC[C@@H](CC(=O)N2CCOCC2)O[C@H]1CO)c1ccccn1 | inactive: 1
O=C1/C(=C/c2cn(-c3ccccc3)nc2-c2ccc(OCc3ccc(Cl)cc3)cc2)SC(=S)N1CCS(=O)(=O)O | inactive: 0.994
C[C@H](CO)N1C[C@H](C)[C@H](CN(C)S(C)(=O)=O)Oc2ccc(N(C)C)cc2C1=O | inactive: 0.99
O=C(O)COCC(=O)Nc1cnccn1 | inactive: 0.972
C[C@H](CO)N1C[C@H](C)[C@@H](CN(C)C(=O)Cc2ccccc2)OCCCC[C@H](C)Oc2ccc(NC(=O)Nc3ccc(C(F)(F)F)cc3)cc2C1=O | inactive: 1.02
C[C@H]1CN([C@@H](C)CO)C(=O)Cc2cc(NC(=O)Nc3ccc(F)cc3)ccc2O[C@@H]1CN(C)Cc1ccc(Cl)c(Cl)c1 | inactive: 0.993
C[C@@H]1CN([C@H](C)CO)C(=O)Cc2cc(NC(=O)Nc3cccc4ccccc34)ccc2O[C@@H]1CN(C)S(=O)(=O)c1ccc(F)cc1 | inactive: 1.02
O=C(C[C@H]1C[C@H]2c3cc(NC(=O)c4ccc5c(c4)OCO5)ccc3O[C@H]2[C@H](CO)O1)NCc1cccnc1 | inactive: 0.952
C[C@H]1CCCCO[C@H](CN(C)C(=O)c2ccncc2)[C@@H](C)CN([C@@H](C)CO)C(=O)c2cc(NS(=O)(=O)c3ccc(Cl)cc3)ccc2O1 | inactive: 0.998
CC(=O)NCCCC[C@@H]1NC(=O)[C@@H]2C[C@H](C(=O)NCCCCCN)[C@H](c3ccc(O)cc3)N2C1=O | inactive: 0.992
C[C@@H]1CN([C@H](C)CO)C(=O)c2cc(NC(=O)Nc3ccccc3)ccc2O[C@@H](C)CCCCO[C@@H]1CN(C)C(=O)CCC(F)(F)F | inactive: 0.988
O=S(=O)(NCC[C@@H]1CC[C@@H](NS(=O)(=O)c2ccccc2Cl)[C@H](CO)O1)c1ccc(Cl)cc1 | inactive: 1.03
CS(=O)(=O)O.Oc1ccc(C2CNCCc3c2cc(O)c(O)c3Cl)cc1 (centres undefined) | inactive: 0.958
CCS(=O)(=O)N[C@H]1CC[C@@H](CC(=O)NCc2ccccn2)O[C@H]1CO | inactive: 1.01

Structure (SMILES) | relative growth
C[C@H](CO)N1C[C@H](C)[C@H](CN(C)Cc2ccc(Oc3ccccc3)cc2)Oc2c(NC(=O)C3CC3)cccc2C1=O | inactive: 0.95
C[C@@H]1CN([C@H](C)CO)C(=O)c2c(c3ccccc3n2C)-c2ccccc2CO[C@@H]1CN(C)Cc1ccc(Cl)c(Cl)c1 | inactive: 1.01
C[C@@H]1CCCCO[C@@H](CN(C)Cc2ccc(C(F)(F)F)cc2)[C@H](C)CN([C@H](C)CO)C(=O)c2cc(NC(=O)CCC(F)(F)F)ccc2O1 | inactive: 1.02
COc1ccc(S(=O)(=O)N(C)C[C@H]2Oc3ccc(NC(=O)Nc4c(C)noc4C)cc3C(=O)N([C@H](C)CO)C[C@H]2C)cc1 | inactive: 0.984
C[C@H](CO)N1C[C@H](C)[C@@H](CN(C)Cc2ccc(C(F)(F)F)cc2)OCCCC[C@H](C)Oc2ccc(NS(C)(=O)=O)cc2C1=O | inactive: 0.961
C[C@H]1O[C@@H]2[C@H](O[C@@H]1C)N(S(C)(=O)=O)CCN2S(C)(=O)=O | inactive: 0.995
c1cc2c(cc1-c1nn[nH]n1)OCO2 | inactive: 0.99
CN1C(=O)c2cc(NS(=O)(=O)c3ccc(F)cc3)ccc2OC[C@H]2O[C@@H](CC(=O)NCC(F)(F)F)CC[C@@H]21 | inactive: 0.984
COc1ccc(CN(C)C[C@H]2OCCCC[C@H](C)Oc3ccc(NC(=O)NC4CCCCC4)cc3C(=O)N([C@@H](C)CO)C[C@@H]2C)cc1 | inactive: 1
C[C@@H]1CCCCO[C@H](CN(C)C(=O)Nc2ccc(C(F)(F)F)cc2)[C@H](C)CN([C@@H](C)CO)C(=O)c2cc(NC(=O)CCC(F)(F)F)ccc2O1 | inactive: 1
C[C@@H]1CN([C@@H](C)CO)C(=O)c2cccc(NS(=O)(=O)c3ccccc3)c2O[C@H]1CN(C)S(=O)(=O)c1cn(C)cn1 | inactive: 0.992
COc1ccc(NC(=O)N2C[C@@H](O)COC[C@H]3O[C@H](CC(=O)NCc4ccccc4OC)CC[C@@H]32)cc1 | inactive: 0.971
Cc1ccc(S(=O)(=O)Nc2ccc3c(c2)C(=O)N([C@H](C)CO)C[C@H](C)[C@@H](CN(C)C(=O)Nc2ccccc2)OCCCC[C@@H](C)O3)cc1 | inactive: 1.01
Cc1cc(C(=O)Nc2cccc3c2O[C@H](CN(C)S(=O)(=O)c2cn(C)cn2)[C@H](C)CN([C@@H](C)CO)C3=O)n(C)n1 | inactive: 1
C[C@@H]1CCCCO[C@H](CN(C)C(=O)Nc2cccc3ccccc23)[C@@H](C)CN([C@@H](C)CO)C(=O)c2cc(NC(=O)Nc3ccc(F)cc3)ccc2O1 | inactive: 1.02
C[C@@H]1CCCCO[C@H](CN(C)S(=O)(=O)c2ccccc2)[C@H](C)CN([C@@H](C)CO)C(=O)c2cc(NC(=O)Nc3ccccc3)ccc2O1 | inactive: 1.02
CC(C)(C)c1cc(NC(=O)Nc2ccc(-c3cn4c(n3)sc3cc(OCCN5CCOCC5)ccc34)cc2)no1 | inactive: 0.961
N[C@H]1CCCN(C(=O)c2cccs2)C1 | inactive: 0.981
C[C@@H]1CCCCO[C@H](CN(C)S(C)(=O)=O)[C@H](C)CN([C@@H](C)CO)C(=O)c2cc(NC(=O)Nc3cccc4ccccc34)ccc2O1 | inactive: 0.997
